The results in this text go back to publication PMC4336329 (PLoS ONE, 2015).

Screen size: about 310,000 compounds; about 2,200 (0.71%) showed an effect of 50% or more. Effects have a minus sign here. The list shows a part of the results.

Sequence of human ether-à-go-go-related gene (hERG) potassium channel (Q12809 whole entry, looked up): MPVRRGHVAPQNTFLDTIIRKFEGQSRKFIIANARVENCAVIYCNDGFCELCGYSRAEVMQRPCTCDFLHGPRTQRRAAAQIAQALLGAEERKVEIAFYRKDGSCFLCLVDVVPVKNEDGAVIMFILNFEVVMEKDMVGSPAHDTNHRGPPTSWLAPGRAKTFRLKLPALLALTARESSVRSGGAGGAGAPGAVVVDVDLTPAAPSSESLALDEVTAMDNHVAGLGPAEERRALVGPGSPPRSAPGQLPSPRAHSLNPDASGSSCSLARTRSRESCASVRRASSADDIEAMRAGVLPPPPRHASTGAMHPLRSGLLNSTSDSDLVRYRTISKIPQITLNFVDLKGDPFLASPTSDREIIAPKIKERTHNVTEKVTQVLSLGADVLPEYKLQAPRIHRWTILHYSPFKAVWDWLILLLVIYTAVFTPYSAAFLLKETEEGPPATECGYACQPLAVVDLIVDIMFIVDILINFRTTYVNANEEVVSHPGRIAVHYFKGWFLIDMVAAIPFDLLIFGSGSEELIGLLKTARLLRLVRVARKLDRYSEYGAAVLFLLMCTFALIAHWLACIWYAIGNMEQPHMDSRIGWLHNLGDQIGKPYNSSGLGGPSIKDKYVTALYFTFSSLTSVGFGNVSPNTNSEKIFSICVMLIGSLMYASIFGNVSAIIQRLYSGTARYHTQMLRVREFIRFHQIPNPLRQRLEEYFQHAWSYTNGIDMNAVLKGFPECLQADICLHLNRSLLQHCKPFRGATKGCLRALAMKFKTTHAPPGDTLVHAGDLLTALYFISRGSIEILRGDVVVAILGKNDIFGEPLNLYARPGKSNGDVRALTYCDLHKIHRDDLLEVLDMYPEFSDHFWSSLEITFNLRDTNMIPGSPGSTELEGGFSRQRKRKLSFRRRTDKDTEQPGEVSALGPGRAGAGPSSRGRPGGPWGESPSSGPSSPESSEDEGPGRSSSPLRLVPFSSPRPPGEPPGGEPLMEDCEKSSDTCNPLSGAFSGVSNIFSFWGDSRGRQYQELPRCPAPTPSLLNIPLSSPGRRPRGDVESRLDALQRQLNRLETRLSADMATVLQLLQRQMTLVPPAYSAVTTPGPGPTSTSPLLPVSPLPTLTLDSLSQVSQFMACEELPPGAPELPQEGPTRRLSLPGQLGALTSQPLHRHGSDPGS

The experiment concerns the target human ether-à-go-go-related gene (hERG) potassium channel (human, UniProt Q12809). In words: primary screen, population patch clamp on CHO cells stably expressing hERG.
As to `CC(=O)N1c2c(cc(Br)cc2S(=O)(=O)N2CCN(c3ccccn3)CC2)CC1C` (stereo not shown), the “hERG current change (%, negative = inhibition) at 1uM” value is on record as 10.2%.

As to `CCCCN=C1NN=C(c2cc3ccccc3o2)CS1`, the “hERG current change (%, negative = inhibition) at 1uM” value is recorded as -4.55%.

With `C/C(=N\NC(=S)NC1CCCCC1)c1ccc(C#N)cc1`, the “hERG current change (%, negative = inhibition) at 1uM” value is listed as 12.2%.

Regarding `CN(Cc1nc2ccccc2c(=O)[nH]1)Cc1nc2ccsc2c(=O)[nH]1`, the “hERG current change (%, negative = inhibition) at 1uM” value came to 6.69%.

Regarding `Cc1ccc(S(=O)(=O)N2CCCCC2)cc1NC(=O)c1ccccn1`, the “hERG current change (%, negative = inhibition) at 1uM” value was 9.89%.

For the compound `CC(=O)NS(=O)(=O)c1ccc(NC(=O)CCc2ccccc2)cc1`, the “hERG current change (%, negative = inhibition) at 1uM” value amounted to 6.51%.

As to `Cc1cc(N/N=C/c2ccccc2)nc(N2CCOCC2)n1`, the “hERG current change (%, negative = inhibition) at 1uM” value came out at 2.01%.

Turning to `Cc1cccc(CSCc2ccc(C(=O)NC3CCCC3)o2)c1`, the “hERG current change (%, negative = inhibition) at 1uM” value is given as 2.56%.

Turning to `CCOc1ccc(/C=N\NC(=O)c2c(C)nc3cc(C)ccn23)cc1`, the “hERG current change (%, negative = inhibition) at 1uM” value came to 9.74%.

`Cc1csc(NC(=O)c2ccc(S(=O)(=O)N(C)c3ccccc3)cc2)n1`: the “hERG current change (%, negative = inhibition) at 1uM” value is 8.88%.

For the compound `Cc1ccc(NC(=O)Cn2nnc(C(=O)NCc3ccco3)c2N)cc1`, the “hERG current change (%, negative = inhibition) at 1uM” value was found to be 3.97%.

Regarding `CCN(CC(=O)Nc1ccccc1C(F)(F)F)C(=O)Cc1cccs1`, the “hERG current change (%, negative = inhibition) at 1uM” value was 15%.

For `O=C(COc1ccc(Br)cc1)Nc1ccc(-c2nnc(-c3ccco3)o2)cc1`, the “hERG current change (%, negative = inhibition) at 1uM” value is 0.523%.

With `COc1ccc(S(=O)(=O)N2CCCC2)c(C)c1C`, the “hERG current change (%, negative = inhibition) at 1uM” value was found to be 0.493%.

As to `CCOC(=O)N1CCN(C(=O)CSc2nc3c(cnn3-c3ccc(C)cc3)c(=O)[nH]2)CC1`, the “hERG current change (%, negative = inhibition) at 1uM” value is listed as -5.13%.

As to `COc1ccc2c(CC(=O)Nc3ccccc3N3CCOCC3)coc2c1`, the “hERG current change (%, negative = inhibition) at 1uM” value was -6.52%.

Regarding `COc1ccc(OC)c(NC(=O)CS(=O)(=O)c2cn(CC(=O)N3CCOCC3)c3ccccc23)c1`, the “hERG current change (%, negative = inhibition) at 1uM” value amounted to 14.7%.

For the compound `CC1(N2CCOCC2)CC2(O)C(=[N+]1[O-])CCc1c2no[n+]1[O-]` (stereo not shown), the “hERG current change (%, negative = inhibition) at 1uM” value turned out to be 11.5%.

As for `O=C(Nc1cccc(C(=O)N2CCCC2)c1)c1ccccc1Cl`, the “hERG current change (%, negative = inhibition) at 1uM” value worked out at 0.986%.

For `Cc1cc(C(=O)NNS(=O)(=O)c2cccc(Cl)c2)nn1C(C)(C)C`, the “hERG current change (%, negative = inhibition) at 1uM” value is 15.5%.

Regarding `CCC1CCCN1Cn1cnc2c([nH]c3ccc(OC)cc32)c1=O` (stereo not shown), the “hERG current change (%, negative = inhibition) at 1uM” value was -35.8%.

Regarding `O=c1cc(COc2ccc(Cl)c(Cl)c2)nc2sccn12`, the “hERG current change (%, negative = inhibition) at 1uM” value amounted to 14.6%.

As for `O=C(NNC1=NCCC1)c1cccc(Br)c1`, the “hERG current change (%, negative = inhibition) at 1uM” value was determined as 13.1%.

In the case of `Br.CCCCCCN1Cc2ccccc2C1`, the “hERG current change (%, negative = inhibition) at 1uM” value is -14.7%.

Regarding `Cc1ccc(Nc2nnc(SC(C)C(=O)NCC3CCCO3)s2)cc1C` (stereo not shown), the “hERG current change (%, negative = inhibition) at 1uM” value is reported as 3.84%.
